By % Inhibition is commonly meant the relative decrease from the control value, in per cent.

About 540 (0.36%) of roughly 150,000 compounds showed an effect of 50% or more. The list shows a part of the results.

This test has as its system Plasmodium falciparum. Nature of the test: Primary screen in NF54 nanoGlo assay, in single point, at 2uM, 72h; a lower Z score goes with more inhibition. The test is classed as functional, Erythrocyte. As to conditions: timepoint 72 hour.
Regarding `CC1CCN(c2cc(N3CCNCC3)ncn2)CC1`, the “% Inhibition” value came to 0% and the Z score is listed as -0.04.
Take `CCC(C)C(NC(=O)OCc1ccccc1)C(=O)N1CCC(C(N)=O)CC1` (centres undefined): the “% Inhibition” value was -6% and the Z score was determined as 0.53.
`CC(=O)Nc1nc(C)c(S(=O)(=O)N2CCOCC2)s1`: the “% Inhibition” value is reported as 5% and the Z score was -0.51.
The matching figures for `CN(CCCc1ccccc1)S(=O)(=O)N1CCCC1`: 1% and -0.06.
In the case of `c1cnc(N2CCC3(CCCN3Cc3ccc(-c4cc[nH]n4)s3)CC2)nc1`, the “% Inhibition” value is given as -11% and the Z score came to 1.74.
Consider `Cc1c(C)n(C2CCCC2)c2ncnc(N3CC[C@H](C(N)=O)C3)c12`, for which the “% Inhibition” value was -2% and the Z score was found to be 0.34.
The matching figures for `N#Cc1ncn(Cc2coc(-c3c(F)cccc3F)n2)c1C#N`: -14% and 2.31.
As for `O=C(CN1CCN(CC(=O)N2CCC[C@H](c3nc4ccccc4s3)C2)CC1)NC1CC1`, the “% Inhibition” value is listed as -13% and the Z score is listed as 1.61.
On to `CCN1CCN(C2(C(=O)N3CC[C@H](COC)C3)Cc3ccccc3C2)CC1`, for which the “% Inhibition” value is on record as -1% and the Z score stood at 0.25.
Regarding `Cc1ccn2c(C(=O)NC(Cc3ccncc3)[C@H]3C[C@@H](O)C3)nnc2n1` (some centres undefined), the “% Inhibition” value is on record as -17% and the Z score is 1.87.
The matching figures for `Cc1cccc2nc(C(=O)N[C@H]3C[C@H](c4nnc(CN(C)C)n4C)C3)c(F)n12`: -12% and 2.32.
`CN1CCC(Nc2ncnc3c2cnn3C)C1c1ccc(Cl)cc1` (centres undefined): the “% Inhibition” value is on record as 45% and the Z score is reported as -5.36.
The matching figures for `CC(C)=CCNC(=O)N1CCC(F)(F)C1`: 1% and -0.14.
In the same order, the values of `COc1ccc(-c2cnnc(-n3nc(C)c4c3NC(=O)C[C@@H]4c3ccc(F)cc3F)n2)cc1` are 14% and -2.68.
In the case of `Cc1noc([C@H]2CCN(C(=O)Cn3cccn3)C2)n1`, the “% Inhibition” value is reported as -3% and the Z score is 0.45.
`CC(C)[C@H](Oc1ccc(Cl)cc1)C(=O)N(C)Cc1c[nH]cn1`: the “% Inhibition” value was -2% and the Z score is 0.34.
As to `N#Cc1ccc(CN[C@@H](Cc2ccccc2)C2CC2)c(F)c1`, the “% Inhibition” value was -1% and the Z score was found to be 0.14.
The matching figures for `CCC(CC(=O)N1CCC2(C1)NC(=O)NC2=O)c1ccc(C)cc1` (centres undefined): -1% and 0.15.
For `CN(C)C(=O)N1CCC(c2nc(CN3CCc4ccccc43)no2)CC1`, the “% Inhibition” value is reported as -6% and the Z score was determined as 0.81.
In the case of `COCC(=O)NC1(CC2CC2)CCN(C(=O)COc2ccccc2)CC1`, the “% Inhibition” value is -6% and the Z score worked out at 1.18.
For the molecule `FC(F)(F)c1sccc1CNCCc1nnc2n1CCC2`, the “% Inhibition” value is given as -1% and the Z score was 0.14.
In the same order, the values of `C=C(CNC(=O)N[C@H](CO)CC1OCCO1)c1ccccc1` are 4% and -0.49.
In the same order, the values of `C/C(=C\c1nsc(Nc2ccc(F)c(Cl)c2)n1)NCc1ccc(C)cc1` are -5% and 0.7.
`CCC(C)N(Cc1ccc(C)cc1C)CC(O)COCc1ccccc1` (centres undefined): the “% Inhibition” value is recorded as -1% and the Z score is 0.09.
The matching figures for `O=C(NC[C@H]1Cn2cc(-c3ccccc3)nc2CO1)c1ccc2c(c1)OCO2`: -1% and 0.14.
For `COC(=O)C1NS(=O)(=O)c2ccc(Cl)cc2C1(O)c1ccccc1F` (centres undefined), the “% Inhibition” value is recorded as 39% and the Z score was -5.7.
In the same order, the values of `Cc1[nH]c(=O)c(C#N)c(C)c1CCC(=O)N1CC(C)CC(C)C1` (centres undefined) are -15% and 1.55.
As for `O=C([C@H]1C[C@@H](F)CN1S(=O)(=O)c1ccc(F)c(Cl)c1)N1CCOCC1`, the “% Inhibition” value is reported as -16% and the Z score is listed as 2.15.
Take `FC(F)(F)c1cc([C@@H](NCc2ccon2)C2CC2)ccc1Cl`: the “% Inhibition” value is listed as -5% and the Z score turned out to be 0.41.
The matching figures for `CCCc1cc(C(=O)N2CCC3(CC2)CN([C@@H](C)CCC)C(=O)O3)[nH]n1`: 20% and -2.79.
In the same order, the values of `COc1ccc(-c2nnc(Cc3nc(-c4ccc(Cl)cc4)no3)o2)cc1OC` are -11% and 1.44.
In the case of `CCC(C)C(CO)NCc1cnc(C2CCC2)s1` (centres undefined), the “% Inhibition” value is -1% and the Z score amounted to 0.13.
For `Cc1ccc(C(C)NC(=O)NCC2CC(=O)N(C3CC3)C2)cc1F` (centres undefined), the “% Inhibition” value is recorded as -6% and the Z score is 0.62.
For `O=C(c1ccc2ccccc2c1)N1CCn2c(nnc2C(F)(F)F)C1`, the “% Inhibition” value is -12% and the Z score is reported as 1.14.
For `Cc1nn(C)c2nc(NCCS(=O)(=O)N(C)C)sc12`, the “% Inhibition” value was -7% and the Z score was 1.29.
In the same order, the values of `C=CCN(CC=C)c1ncc(C(N)=O)cc1Cl` are -3% and 0.38.
In the case of `Cc1cc(C)nc(NC[C@H](O)COc2ccc(F)cc2)n1`, the “% Inhibition” value was 5% and the Z score was -0.6.
For the molecule `Cc1n[nH]c(C)c1CN[C@@H](C(C)C)[C@H](O)C(F)(F)F`, the “% Inhibition” value was -2% and the Z score came out at 0.25.
The matching figures for `COc1ccccc1C(=O)N1CCN(c2cc(=O)n(C)c(=O)n2C)CC1`: -2% and 0.24.
For the molecule `Cc1ccc(CNc2nnc(CCC(C)C)o2)nc1`, the “% Inhibition” value is reported as 3% and the Z score is listed as -0.61.
In the same order, the values of `Cc1nc(C)c(CC(=O)N[C@H]2COCC[C@@H]2Oc2ccccn2)s1` are -3% and 0.35.
As for `COCCn1ccc2ccn(CC3CC3)c2c1=O`, the “% Inhibition” value is -18% and the Z score came out at 1.62.

Values taken from ChEMBL document CHEMBL4888484, “Replenishing the malaria drug discovery pipeline: Screening and hit evaluation of the MMV Hit Generation Library 1 (HGL1) against asexual blood stage Plasmodium falciparum ,using a nano luciferase reporter read-out” (2022).
